Data published in the supplement of paper PMC12645437, “Orthogonal IMiD-Degron Pairs Induce Selective Protein Degradation in Cells” (ACS Chemical Biology, 2025).
The other results are listed elsewhere or left out.
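Further: jurkat cells carrying a lentiviral library of mutant zinc finger degrons fused to EGFP plus mCherry, mCherry+ cells FACS sorted, degron abundance counted by next-generation sequencing.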

Each sequence was assayed against no compound (DMSO) (assay: log2 fold change of degron read counts, EGFP-low vs EGFP+ sorted cells; higher = lower degron-EGFP level without compound (poor expression or instability)). Settings: compound: DMSO control; 18 h.
For FVCNQCGAPFTQKGNLLRHIKL, the “log2 fold change of degron read counts” value was -0.299. For FNCPVCGACFTQKGNLLRHIKL, the “log2 fold change of degron read counts” value was -0.0384. FWCPVCGAYFTQKGNLLRHIKL was tested, and the “log2 fold change of degron read counts” value was 1.84. For LTCPICGFPCTQKGNLLRHIKL, the “log2 fold change of degron read counts” value was 1.7. For FMCNQCGRGFTQKGNLLRHIKL, the “log2 fold change of degron read counts” value was -0.554. LLCEICGFCCTQKGNLLRHIKL was tested, and the “log2 fold change of degron read counts” value was 0.615. For FICNQCGRQFTQKGNLLRHIKL, the “log2 fold change of degron read counts” value was -0.591. For LQCEICGFKCTQKGNLLRHIKL, the “log2 fold change of degron read counts” value was -0.755. With LQCPICGFMCTQKGNLLRHIKL the “log2 fold change of degron read counts” value was 0.875. In the case of FKCDQCGAKFTQKGNLLRHIKL, the “log2 fold change of degron read counts” value is reported as -1.94. For FMCPICGHWFTQKGNLLRHIKL, the “log2 fold change of degron read counts” value was 0.587. With LFCEICGFWCTQKGNLLRHIKL the “log2 fold change of degron read counts” value was 1.34. In the case of FACDVCGAEFTQKGNLLRHIKL, the “log2 fold change of degron read counts” value is reported as -2.01. For FECEVCGAHFTQKGNLLRHIKL, the “log2 fold change of degron read counts” value was -1.1. FGCDQCGAQFTQKGNLLRHIKL was tested, and the “log2 fold change of degron read counts” value was -0.775. With FLCPICGHKFTQKGNLLRHIKL the “log2 fold change of degron read counts” value was -0.627. LSCPICGFSCTQKGNLLRHIKL was tested, and the “log2 fold change of degron read counts” value was 0.719. With FHCPICGAKFTQKGNLLRHIKL the “log2 fold change of degron read counts” value was -0.606. FACPVCGADFTQKGNLLRHIKL was tested, and the “log2 fold change of degron read counts” value was -0.501. For FECNICGANFTQKGNLLRHIKL, the “log2 fold change of degron read counts” value was -1.32. With FECNQCGAIFTQKGNLLRHIKL the “log2 fold change of degron read counts” value was -1.28. LACNQCGFTCTQKGNLLRHIKL was tested, and the “log2 fold change of degron read counts” value was -0.00727. FLCEQCGADFTQKGNLLRHIKL was tested, and the “log2 fold change of degron read counts” value was -1.23. LYCNQCGFGCTQKGNLLRHIKL was tested, and the “log2 fold change of degron read counts” value was 1.18. FSCDQCGASFTQKGNLLRHIKL was tested, and the “log2 fold change of degron read counts” value was -3.5. In the case of FRCDVCGANFTQKGNLLRHIKL, the “log2 fold change of degron read counts” value is reported as -1.5. For FGCSVCGHCFTQKGNLLRHIKL, the “log2 fold change of degron read counts” value was 0.164. With FFCPVCGAAFTQKGNLLRHIKL the “log2 fold change of degron read counts” value was 0.271. For FMCEQCGAGFTQKGNLLRHIKL, the “log2 fold change of degron read counts” value was -2.58. With FGCSVCGHTFTQKGNLLRHIKL the “log2 fold change of degron read counts” value was -0.661. In the case of FSCDVCGATFTQKGNLLRHIKL, the “log2 fold change of degron read counts” value is reported as -1.51. For FRCSVCGHFFTQKGNLLRHIKL, the “log2 fold change of degron read counts” value was 0.28.
